Measured values from PubChem BioAssay AID1508623 (National Center for Advancing Translational Sciences (NCATS), 2021).
The whole screen tested about 48,000 compounds, of which about 450 (0.94%) were called active. Inconclusive results (about 19%) are left out. Calls follow the shape of the dose curve; as a rule, active = well fitted inhibition curve with a large enough effect; inconclusive = small, poorly fitted or top-dose-only effect; inactive = no such curve, though single readings can be large or run the other way. Some of the results follow.

Assay: Primary qHTS for Identification of Small Molecule Inhibitors of Huntingtin Promoter Activity; also: nearly all actives have a fitted effect of over 50% in size
Conditions: HEK293 HTT promoter firefly luciferase reporter (activity 0% = vehicle and -100% = no light), 24 h; series mostly up to 57.5 µM; activity change, negative = inhibition: at the top concentration
Outline: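 HEK293 Fluc reporter, 2,500 cells/well, 24 h pre-culture; cpds up to 57.5 uM final, 24 h 37 degrees C; Dual-Glo, 10 min RT; normalized vehicle = 0%, zero RLU = -100%.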

Activity change, negative = inhibition, inactive:
CC1(C)N=C(c2ccc(F)cc2)C(=O)N1CC(=O)Nc1ccccc1Cl -17.6%
Cc1ccc(Cn2c3ccccc3c3cnn(CC(=O)N4CCCCCC4)c(=O)c32)cc1 -29.4%
COc1ccc(-n2nc3c(c2NC(=O)C(=O)NCc2ccccc2)CSC3)cc1 -25.5%
COC(=O)c1cc2oc(C)cc2n1CC(=O)Nc1ccc(OC)c(OC)c1 -11.4%
CCOc1ccc(-n2c(=O)c3c(C)c(C)sc3n(Cc3c(F)cccc3Cl)c2=O)cc1 -5.23%
COc1ccc(N2C(=O)CS(=O)(=O)C23C(=O)N(Cc2ccccc2)c2ccccc23)cc1 (stereo not given) -28.6%
CCN1CCN(c2cc(C)c3cc(NC(=O)c4cc(OC)c(OC)c(OC)c4)ccc3n2)CC1 13.6%
Clc1cccc(N2CCN(c3nc4ccccc4c4nc(-c5ccccc5)nn34)CC2)c1 -7.77%
Cc1cc(C)cc(NC(=O)Cn2c(=O)n(CCC(C)C)c(=O)c3cccnc32)c1 9.71%
CCc1ccc2oc(C(=O)N(Cc3cccc(Cl)c3)Cc3ccco3)c(C)c2c1 -26.3%
Cn1c(=O)cc(SCC(=O)NCCc2ccc(Cl)cc2)c2cc(Cl)ccc21 -12.4%
COc1cccc(CNC(=O)CCCn2c(=O)c3cccn3c3ccc(F)cc32)c1OC -4.08%
COc1ccc(-c2cc(C(C)=O)c(C)n2CCC(=O)Nc2cccc(C)c2C)cc1 -22%
O=C(CSc1nc2ccccc2c2nc(-c3ccccc3)nn12)Nc1ccc(F)cc1 -14.9%
O=C(Cn1c2ncccc2c(=O)n1-c1ccccc1)Nc1cccc(C(F)(F)F)c1 -38.1%
CCc1nnc(SC(CC)C(=O)NCCOC)c2cc3occc3n12 (stereo not given) -1.65%
CCc1cccc(NC(=O)Cn2c(=O)n(Cc3ccccc3)c(=O)c3c(C)c(C(=O)N(C)C)sc32)c1 -3.93%
CN1CCN(C(=O)c2cnn(-c3ccccc3)c2C2CCN(C(=O)OC(C)(C)C)CC2)CC1 -11.5%
Cc1ccc(C)c(NC(=O)Cn2cc(S(=O)(=O)N3CCCC3)c(S(=O)(=O)N3CCCC3)c2)c1 5.78% [at 11.5 µM]
Cc1cccc(NC(=O)CSc2nc(C)cc(C)c2C(=O)Nc2ccc(Cl)cc2)c1 -27%
COc1ccc(Cl)cc1NC(=O)c1cc(=O)c2cc(C)cc(C)c2o1 8.8% [at 11.5 µM]
CCc1ccc2c(c1)c(=O)c(S(=O)(=O)c1ccccc1)cn2CC(=O)Nc1cc(C)ccc1C -17.8%
COc1cc(NC(=O)CN(C)S(=O)(=O)c2ccc3c(c2)CCCC(=O)N3)cc(OC)c1OC -25.2%
COc1ccc(-c2nc3ccccc3o2)cc1NC(=O)COc1c(C)cc(Cl)cc1Cl 17.1%
Cc1ccc(CCNC(=O)Cn2ncc3c(=O)oc4ccccc4c32)cc1 -18.2%
CCN(CC)CCCC(C)Nc1nc(C)cc(Nc2ccc3nc(C)cc(N)c3c2)n1 (stereo not given) 12.9%
CC(C)(C)OC(=O)N1CCC(c2c(C(=O)N3CCN(c4ccccc4F)CC3)cnn2C(C)(C)C)CC1 -24.8%
CCOC(=O)C1CCN(c2csc3ccc(C)cc3c2=O)CC1 -9.68%
COC(=O)c1cc2sc(C)cc2n1Cc1nc(-c2cccc(Br)c2)oc1C -16.5%
CCOC(=O)c1[nH]c(C)c(CCC(=O)N2CCN(c3cccc(OC)c3)CC2)c1C -19.7%
Cc1ccc(-c2noc(-c3ccccc3NC(=O)c3ccccc3)n2)cc1 39.8%
CCOc1ccc(NC(=O)Cn2ncc3c2-c2cc(C)ccc2OC3)cc1 -22.4%
CCC(=O)N1CCc2cc(Br)cc(S(=O)(=O)CCC(=O)NCc3ccccc3OC)c21 -20.5%
COc1ccc(CCNC(=O)C(=O)Nc2ccccc2F)cc1 14.8%
Cc1ccc(CNC(=O)C(=O)Nc2c3c(nn2-c2ccccc2)CSC3)cc1 -23%
O=C(NCc1ccccc1)c1ccc(CNS(=O)(=O)c2ccc(Br)cc2)cc1 -18%
COc1ccccc1CNS(=O)(=O)c1ccc2c(c1)CC(C)N2C(C)=O (stereo not given) -20.1%
CC1CCN(S(=O)(=O)c2ccc3c(c2)N(CC(=O)NC(C)c2ccccc2)C(=O)CS3)CC1 (stereo not given) -25.8%
Cc1ccc(C)c(N2CCN(S(=O)(=O)c3ccc4[nH]c5c(c4c3)CCCCC5)CC2)c1 -25.9%
CC(C)Cn1cc(NC(=O)N2CCN(c3cccc(Cl)c3)CC2)c2ccccc2c1=O -21.5%
CCc1ccc(NC(=O)N2CCOc3ccc(Cl)cc32)cc1 33%
COc1cc(Cl)c(S(=O)(=O)NCCc2c(C)[nH]c3c(C)cccc23)cc1Cl -17.3%
CCCn1c(=O)c2[nH]c(-c3cnn(Cc4cccc(C(F)(F)F)c4)c3)nc2n(CC)c1=O 4.18%
O=C(O)c1cc(=O)c2ccccc2o1 -1.88%
Cc1cc(C)c(NC(=O)c2cc(S(=O)(=O)N3CCC4(CC3)OCCO4)ccc2F)c(C)c1 -20.1%
COC(=O)c1ccc(C2c3c(-c4ccccc4O)n[nH]c3C(=O)N2Cc2cccnc2)cc1 (stereo not given) -9.16%
CCN(CCCNC(=O)Cn1ncc2c3ccccc3n(C)c2c1=O)Cc1ccccc1 9.86%
CC1CCCN(C(=O)CSc2c3c(nc4cc(Cl)ccc24)CCCC3)C1 (stereo not given) -14%
O=C(Nc1cc(-c2nc3cc(Cl)ccc3o2)ccc1Cl)c1ccco1 53.1%
CCc1ccc(NC(=O)CSc2nc(=O)n(Cc3ccccn3)c3c2CCC3)cc1 -0.249%
COc1cccc(C2C(C(=O)Nc3ccc(C)cc3C)=C(C)Nc3c(C(=O)Nc4ccccc4)cnn32)c1 (stereo not given) -19.5%
NS(=O)(=O)c1cc(C(=O)O)c(NCc2ccco2)cc1Cl
COc1ccc(NC(=O)c2cc(S(=O)(=O)N3CCOCC3)ccc2OC)cc1 -14.6%
CCc1cccc(C)c1NS(=O)(=O)c1c(C(=O)N2CCC(C)CC2)c(C)n(C)c1C -26.2%
COc1ccc(OC)c(NS(=O)(=O)c2ccc3c(c2)C(C)(C)C(=O)N3C)c1 -0.336%
COc1cccc(CNC(=O)c2ccc3c(c2)c(C)c(C)n3Cc2ccccc2)c1 9.11%
COc1ccc(CNC(=O)c2cc3cc4cc(OC)ccc4nc3o2)cc1 28.5%
Cc1nnc(N2CCC(C(=O)NC3CCCCC3)CC2)c2nn(-c3ccccc3)c(C)c12 -4.47%
NC(=O)C1CCN(C(=O)c2ccc(NC(=O)c3nsc4ccccc34)cc2)CC1 -26.6%
Clc1cccc(-c2ccc(CNCCSc3nnnn3-c3ccccc3)o2)c1 -11.3%
O=C(c1ccccc1)N1CCN(CCc2ccncc2)CC1 -18%
Cc1cc(C)c(NC(=O)c2sc3nc(C)cc(C)c3c2NC(=O)c2ccccc2)c(C)c1 -9.28%
CCOc1ccc(CCNC(=O)c2cn(C)c3ccc(S(=O)(=O)N4CCCCC4)cc3c2=O)cc1OCC 19.1%
COc1ccccc1C(=O)Nc1cccc(C(=O)OCc2cc(=O)n3cc(C)sc3n2)c1 -16.8%
O=C(CCn1cnc2ccccc2c1=O)NCc1ccccc1Cl -10.7%
CCc1nc2nc(C)c(NS(=O)(=O)c3ccc(C(C)(C)C)cc3)c(=O)n2[nH]1 -6%
COc1ccc(-c2nc(C)c(CCNS(=O)(=O)c3cc(Cl)ccc3Cl)s2)cc1 -25.3%
CCc1nn2c(=O)cc(COC(=O)COc3ccc(OC)cc3)nc2s1 -13.8%
CCC(=O)N1c2ccccc2CC1C(=O)NCCc1ccc(OC)c(OC)c1 (stereo not given) -13.5%
Cc1c(C(=O)Nc2cccc(C(F)(F)F)c2)oc2ccc3c(c12)C(=O)CC(C)(C)O3 20.9%
COc1cccc(-n2c(=O)c3sc4ccccc4c3n(CC(=O)NC3CCCCC3)c2=O)c1 22.8%
Cc1c(NC(=O)c2ccc(-c3cccc([N+](=O)[O-])c3)o2)cccc1-c1nc2cc(Cl)ccc2o1 11.5%
CCOC(=O)c1cc2c(=O)n3ccccc3nc2n(CCOC)c1=NC(=O)c1c(-c2ccccc2Cl)noc1C -9.24%
Cn1c(=O)oc2cc(S(=O)(=O)NCCC(=O)Nc3ccc(F)cc3F)ccc21 12.4%
Cc1cc(OCC(=O)Nc2ncn[nH]2)ccc1Cl -2.4%
CCN(CC)S(=O)(=O)c1ccc(OC)c(-n2cnnn2)c1 0%
O=C(NCCC1=CCCCC1)c1ccc2c(c1)N(Cc1cccc(Cl)c1)C(=O)c1ccccc1S2=O (stereo not given) -23%
CCCCC(=O)NC1CC(=O)N(c2ccc3c(c2)OCCO3)C1 (stereo not given) -14.7%
CC(C)CCNC(=O)Cc1ccc(NC(=O)N2CCCCc3ccccc32)cc1 -12.3%
CCCCn1c(SCC(=O)c2ccccc2)nc2c(sc3ccccc32)c1=O -5.82%
CCN(C(=O)Cn1nnc2sc3c(c2c1=O)CCC(C(C)(C)C)C3)c1cccc(C)c1 (stereo not given) -13.7%
CCc1ccc(CNC(=O)c2nn(-c3ccc(C)cc3)c(=O)c3c2c2ccccc2n3C)cc1 -12.4%
CC(=O)c1ccc(N2CCN(C(=O)C3CCCN(S(=O)(=O)c4ccc(Br)s4)C3)CC2)cc1 (stereo not given) 0%
Cc1ccc(-n2nc3ccc(NC(=O)COc4ccccc4C)cc3n2)cc1 27.1%
CCC1CN(S(=O)(=O)c2cc(-c3cc(C)no3)ccc2C)c2cc(C)ccc2O1 (stereo not given) -13.3%
Cc1ccc(-n2nc(CO)c(C(=O)NCCCCc3ccccc3)n2)cc1C 4.82%
Cc1cc(C)c(NC(=O)Cn2nc(-c3ccncc3)ccc2=O)c(C)c1 -4.13%
CCCn1c(=O)n(-c2ccccc2Cl)c(=O)c2sc3ccccc3c21 -8.97%
COc1cccc(Cn2c(CNC(=O)Cc3cccc(C)c3)nc3cccnc32)c1 -2.04%
Cc1ccccc1NC(=O)Cn1c(=O)oc2cc(Br)ccc21 -16.6%
COc1ccc(N(CC(=O)Nc2cccc(Cl)c2C)S(=O)(=O)c2c(C)nn(C)c2C)cc1 -24.8%
Cc1ccc(NC(=O)c2cccc3c2C(=O)N(C2CCCCC2)C3)c(C)c1 -4.15%
Cc1c(C)n(C)c2ccc(C(=O)NCCCN3CCCCC3C)cc12 (stereo not given) -3.99%
O=C(c1cc2c(s1)-c1ccccc1OC2)N1CCN(c2ccccc2F)CC1 3%
Cc1ccc(C)c(NC(=O)Cn2cc(C(=O)c3ccco3)c3ccccc32)c1 -58.3%
